What all share (test): co-IP; HEK293 cells co-transfected with tagged plasmids; lysate incubated with the indicated antibody overnight at 4 °C, protein A/G plus agarose beads, western blot; in some panels a third protein co-expressed, or cells incubated with 5Z-7-OX (0.1, 0.3 or 1 mM, 12 h)
For orientation: In western blotting, separated proteins are transferred to a membrane and probed.

In experiment [1] the target is T1, TRAF6 (332–530) (UniProt P70196).
T1 sequence: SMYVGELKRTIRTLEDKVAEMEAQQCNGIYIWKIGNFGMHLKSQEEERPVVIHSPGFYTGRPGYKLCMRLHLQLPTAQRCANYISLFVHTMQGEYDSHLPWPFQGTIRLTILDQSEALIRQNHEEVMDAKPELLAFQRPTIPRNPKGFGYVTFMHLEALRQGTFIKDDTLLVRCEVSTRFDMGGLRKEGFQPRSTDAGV

The target in experiment [2] is T2, TGF-β activated kinase 1 binding protein 2 (TAB2) (UniProt Q99K90).
T2 sequence: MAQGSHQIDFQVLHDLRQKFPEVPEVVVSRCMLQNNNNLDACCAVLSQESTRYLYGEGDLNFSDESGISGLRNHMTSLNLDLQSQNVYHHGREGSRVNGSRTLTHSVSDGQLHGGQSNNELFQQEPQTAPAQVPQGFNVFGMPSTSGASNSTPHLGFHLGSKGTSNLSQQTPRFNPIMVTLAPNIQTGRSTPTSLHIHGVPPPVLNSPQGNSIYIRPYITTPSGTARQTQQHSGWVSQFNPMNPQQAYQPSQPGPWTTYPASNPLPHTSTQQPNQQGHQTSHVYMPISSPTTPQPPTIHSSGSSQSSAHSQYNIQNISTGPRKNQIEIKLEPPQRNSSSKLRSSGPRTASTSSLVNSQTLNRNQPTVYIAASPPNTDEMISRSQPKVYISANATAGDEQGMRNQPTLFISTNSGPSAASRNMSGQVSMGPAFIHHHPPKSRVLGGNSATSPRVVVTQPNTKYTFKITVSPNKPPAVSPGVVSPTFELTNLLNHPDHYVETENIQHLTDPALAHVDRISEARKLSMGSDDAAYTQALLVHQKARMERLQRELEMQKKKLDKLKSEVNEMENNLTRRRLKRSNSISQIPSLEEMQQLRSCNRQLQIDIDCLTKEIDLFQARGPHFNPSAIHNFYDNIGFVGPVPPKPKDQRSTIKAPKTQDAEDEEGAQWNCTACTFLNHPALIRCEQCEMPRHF

In experiment [3] the target is T3, TAK1 (1–300) (UniProt Q62073).
T3 sequence: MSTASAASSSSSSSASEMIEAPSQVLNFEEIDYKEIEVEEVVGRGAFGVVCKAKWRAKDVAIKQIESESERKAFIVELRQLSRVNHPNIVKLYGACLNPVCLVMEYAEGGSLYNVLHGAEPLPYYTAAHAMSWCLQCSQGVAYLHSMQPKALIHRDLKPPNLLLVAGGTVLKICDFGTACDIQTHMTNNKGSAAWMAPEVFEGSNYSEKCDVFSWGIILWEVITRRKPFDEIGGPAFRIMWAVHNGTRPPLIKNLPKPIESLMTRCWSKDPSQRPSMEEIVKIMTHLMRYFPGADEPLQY

Consider one molecule from publication PMC11109194.

Results are given in words; binding and its absence hold for the method and conditions named. Binding seen in cells or lysates may run through a third protein. Some binding calls cover weakened binding; strength is not graded here. Sequences can lack the tags named with a protein.

B1: Flag-TIGAR (TP53-induced glycolysis and apoptosis regulator) (protein, UniProt Q8BZA9 1-269)
chain: MPRFALTVIRHGETRLNKEKIIQGQGVDAPLSETGFRQAAAAGQFLSNVQFTHAFSSDLTRTKQTIHGILEKSRFCKDMAVKYDSRLRERMYGVAEGKPLSELRAMAKAAGEECPMFTPPGGETVEQVKMRGKDFFDFICQLILGKAGQRESVLPGAPGSGLESSLAEVFPVGKHGSLGANPKGGTLGLAASILVVSHGAYMRSLFGYFLSDLRCSLPGARDKLELSSITPNTGISVFIIDCEEARQPSIQCVCMNLQEHLNGVTEKQH
B1: the binding result in experiment [1] is listed as “binds”; in experiment [2] it was “no binding”; in experiment [3], “binds”.
